Test results taken from the supplement of paper PMC8291772.
± gives the standard error. This is one part of the list.

Each sequence was assayed against terminal deoxynucleotidyl transferase (calf thymus) (UniProt P06526) (assay: TdT poly-dT extension signal (Cy3 hybridisation fluorescence, uncapped minus capped) (fluorescence a.u.); higher = more efficient initiation of TdT extension). Details: initiator chemistry: L-DNA (mirror-image), free 5'-OH (3'-tethered via HEG linker).
Description: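 All mono- to pentamer D-DNA or L-DNA initiators were made by forward (3'->5') photolithographic in situ synthesis on glass on a hexaethylene glycol linker, leaving a free 5'-OH. Each was made in uncapped and DMTr-dT-capped versions, about 11 replicates each. Arrays were extended with calf thymus TdT (0.2 U/uL), 100 uM dTTP and 0.25 mM CoCl2 for 120 min at 37 C, hybridised with an rA18-Cy3 probe and scanned at 532 nm. The value is the mean uncapped minus the mean capped signal. IDs read 5'->3'. L-DNA is mirror-image; D-DNA 5'-OH initiators were below LOD (no extension).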

Sequence of UniProt P06526 (P06526 whole entry): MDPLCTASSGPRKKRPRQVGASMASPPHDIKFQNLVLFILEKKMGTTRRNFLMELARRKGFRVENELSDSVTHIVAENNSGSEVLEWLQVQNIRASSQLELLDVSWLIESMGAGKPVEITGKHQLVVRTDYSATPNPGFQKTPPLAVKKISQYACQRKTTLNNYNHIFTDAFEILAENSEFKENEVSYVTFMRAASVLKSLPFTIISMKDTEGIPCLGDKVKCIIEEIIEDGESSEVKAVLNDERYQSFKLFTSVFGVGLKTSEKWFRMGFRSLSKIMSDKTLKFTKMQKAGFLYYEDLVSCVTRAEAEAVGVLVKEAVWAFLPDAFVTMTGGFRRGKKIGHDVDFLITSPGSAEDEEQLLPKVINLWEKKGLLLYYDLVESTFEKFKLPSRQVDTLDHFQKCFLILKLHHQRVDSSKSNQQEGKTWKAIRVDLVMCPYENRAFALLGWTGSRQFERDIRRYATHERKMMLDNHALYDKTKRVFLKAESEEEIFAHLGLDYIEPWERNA

Sequence | TdT poly-dT extension signal
ATGGC | 127 ± 8.4
AAAAT | 116 ± 8.5
TCTTA | 185 ± 18
GGGGG | 140 ± 22
GCCAC | 117 ± 11
AAAC | 95.6 ± 6.7
TTACC | 393 ± 30
CAAGG | 68.1 ± 7.1
TTTTG | 293 ± 38
AACA | 77.7 ± 7.8
GTATA | 166 ± 9.6
TCCGA | 232 ± 16
CGTGC | 56.1 ± 9.6
ATCCC | 147 ± 16
TTCGC | 323 ± 18
CGCAG | 68.2 ± 4.8
GACTA | 90.7 ± 8
ACTAT | 78.1 ± 8.2
GAAGT | 63.4 ± 5.8
AGGT | 48.1 ± 6.9
CCGGC | 73.4 ± 5.9
TGGG | 117 ± 12
GGCCG | 76.6 ± 5.5
CGGCA | 46.5 ± 5.4
TGAA | 191 ± 8.7
TTTGA | 320 ± 26
TCGGC | 137 ± 6.5

Sequence | TdT poly-dT extension signal
AACCT | 68.9 ± 7.2
ACTA | 84.4 ± 5.3
TTCC | 293 ± 17
AGTGT | 44.6 ± 5.9
CGGG | 67.9 ± 5.8
GCGAT | 76.8 ± 5.8
CGGCG | 62.5 ± 5.1
AACCA | 76.7 ± 5.9
TCACT | 166 ± 13
AGGA | 41 ± 5.6
CATCA | 74 ± 8.4
GGATG | 79.8 ± 6.8
TAAGT | 139 ± 7.2
TTATG | 340 ± 26
TCGA | 164 ± 8.8
GATAC | 80.4 ± 7.8
TGCCT | 141 ± 10
TGAAT | 218 ± 9.9
ATTTA | 158 ± 8.6
AGCTC | 43.9 ± 5.9
ACATA | 94.3 ± 6.5
GCATG | 68.4 ± 6.1
GATGT | 73.7 ± 5.3
GATT | 74.5 ± 8.8
CAAC | 86.1 ± 7.5
TTACG | 380 ± 28
GTTGG | 144 ± 11

Sequence | TdT poly-dT extension signal
CAATG | 82.3 ± 7.5
ACGGT | 45.2 ± 3.5
CACCA | 78.3 ± 7.2
ACGTG | 55.7 ± 6
CCATT | 86.9 ± 6.7
CTTT | 127 ± 17
AATT | 65.9 ± 7.1
GTCTC | 134 ± 13
TACT | 156 ± 14
GAGCT | 48.4 ± 4.7
CCTGG | 79.5 ± 7.8
GCACC | 62.7 ± 5.7
GCCTT | 65.7 ± 7
AACTT | 58.3 ± 8.9
AGCGT | 60.8 ± 7
GGGAA | 86.2 ± 9.3
ACTCC | 51.6 ± 7
CGGCT | 41.9 ± 5
CGTGA | 62 ± 7.9
ATAC | 145 ± 13
TTAGA | 396 ± 35
GACG | 90.2 ± 7.1
ACGA | 68.3 ± 10
GACC | 79.2 ± 7.3
CGAAT | 80.7 ± 9.7
GGAAG | 82.2 ± 8.3
CTTAA | 181 ± 12

Sequence | TdT poly-dT extension signal
TTTAT | 331 ± 24
TGGAA | 157 ± 20
AGCCG | 52.1 ± 6.1
ACTGG | 71.1 ± 8.8
GCGCA | 60.6 ± 4.9
CGAT | 58.9 ± 7.2
TGTAG | 151 ± 11
TAATT | 187 ± 11
CAGA | 62.8 ± 6.1
GCCAG | 113 ± 9.8
GGTAT | 57.1 ± 6.5
TACCA | 154 ± 18
TGCC | 126 ± 14
TCTT | 131 ± 13
CCCGA | 104 ± 13
CCCCG | 119 ± 4.4
TGCTC | 133 ± 7.3
GGTAG | 73.1 ± 12
GGGAT | 68.8 ± 6.8
CAGCC | 42.2 ± 5.7
GGCAC | 66.6 ± 6.4
GTCTG | 128 ± 7.3
TGTC | 117 ± 8.9
TTTA | 271 ± 29
